As usually defined, the Ki is a measure of affinity in units of concentration, obtained from inhibition or displacement.

The test has as its target Recombinant heterodimeric HCV NS3/NS4A protease (strain 1a) (Hepatitis C virus genotype 1a, UniProt P27958). Nature of the test: Spectrophotometric assay for HCV protease inhibitory activity (chromogenic ester substrates). The format is biochemical. The conditions noted are these: Table 3, Esters; read-out: Ki* Range.
Turning to `C=CCNC(=O)C(=O)C(CC1CC1)NC(=O)[C@@H]1[C@@H]2[C@H](CN1C(=O)[C@@H](NC(=O)N[C@H](C(=O)OC(C)(C)C)C(C)C)C1Cc3ccccc3C1)C2(C)C` (some centres unmarked) [compound 4547], the Ki lay within 76 to 250 nM.
For the compound `CC(C)(C)OC(=O)CCNC(=O)C(=O)[C@H](CC1CC1)NC(=O)[C@@H]1[C@@H]2[C@H](CN1C(=O)[C@@H](NC(=O)N[C@H](C(=O)OCc1ccccc1)C1CCC1)C(C)(C)C)C2(C)C` [compound 4548], the Ki was in the range of 76 to 250 nM.
Under `CC(C)(C)OC(=O)CCNC(=O)C(=O)[C@H](CC1CC1)NC(=O)[C@@H]1[C@@H]2[C@H](CN1C(=O)[C@@H](NC(=O)N[C@H](C(=O)OCc1ccccc1)C1CCCC1)C(C)(C)C)C2(C)C` [compound 4549] stands 76 to 250 nM; under `CC1(C)[C@@H]2[C@@H](C(=O)NC(CC3CC3)C(=O)C(N)=O)N(C(=O)[C@@H](NC(=O)N[C@H](C(=O)OCC3CC3)C3(C(F)(F)F)CC3)C3(C(F)(F)F)CC3)C[C@@H]21` (some centres unmarked) [compound 4550], 76 to 250 nM.
Under `CC(C)(C)[C@H](NC(=O)N[C@H](C(=O)N1C[C@H]2[C@@H]([C@H]1C(=O)NC(CC1CC1)C(=O)C(N)=O)C2(C)C)C(C)(C)C)C(=O)OC1CCCCC1` (some centres unmarked) [compound 4551] stands 76 to 250 nM; under `C=CCNC(=O)C(=O)C(CCC(F)(F)F)NC(=O)[C@@H]1[C@@H]2[C@H](CN1C(=O)[C@@H](NC(=O)N[C@H](C(=O)OCc1ccccc1)C1CCC1)C(C)(C)C)C2(C)C` (some centres unmarked) [compound 4552], 76 to 250 nM; under `CNC(=O)C(=O)C(CC1CC1)NC(=O)[C@@H]1[C@@H]2[C@H](CN1C(=O)[C@@H](NC(=O)N[C@H](C(=O)OCc1ccccc1)C(C)(C)C)C(C)(C)C)C2(C)C` (some centres unmarked) [compound 4553], 76 to 250 nM.
Next, `C=CCNC(=O)C(=O)C(CC1CC1)NC(=O)[C@@H]1[C@@H]2[C@H](CN1C(=O)[C@@H](NC(=O)N[C@H](C(=O)OC(C)(C)C)C(C)(C)C)C1(C)CCCCC1)C2(C)C` (some centres unmarked) [compound 4554]: 76 to 250 nM; `CC(C)[C@H](NC(=O)N[C@H](C(=O)N1CC2(C[C@H]1C(=O)NC(CC1CC1)C(=O)C(N)=O)SCCS2)C(C)(C)C)C(=O)OCC1CC1` (some centres unmarked) [compound 4555]: 76 to 250 nM; `CC1(C)[C@@H]2[C@@H](C(=O)NC(CC3CCC3)C(=O)C(N)=O)N(C(=O)[C@@H](NC(=O)NC3(C(=O)OCc4ccccc4)CCCCC3)C3CCCCC3)C[C@@H]21` (some centres unmarked) [compound 4556]: 76 to 250 nM.
In the case of `CC(C)(C)[C@H](NC(=O)NC1(C(=O)OCc2ccc(C(F)(F)F)cc2)CCCCC1)C(=O)N1C[C@H]2[C@@H]([C@H]1C(=O)NC(CC1CC1)C(=O)C(N)=O)C2(C)C` (some centres unmarked) [compound 4557], the Ki lay within 76 to 250 nM.
Next, `C=CCNC(=O)C(=O)C(CCC)NC(=O)[C@@H]1[C@H]2CC(C)(C)O[C@H]2CN1C(=O)[C@@H](NC(=O)N[C@H](C(=O)OCc1ccco1)C(C)C)C(C)(C)C` (some centres unmarked) [compound 4558]: 76 to 250 nM; `C=CCNC(=O)C(=O)C(CCCC)NC(=O)[C@@H]1[C@@H]2[C@H](CN1C(=O)[C@@H](NC(=O)N[C@H](C(=O)OC(C)C)C(C)C)C(C)(C)C)C2(C)C` (some centres unmarked) [compound 4559]: 76 to 250 nM.
Under `C=CCNC(=O)C(=O)C(CCCC)NC(=O)[C@@H]1[C@@H]2[C@H](CN1C(=O)[C@@H](NC(=O)N[C@H](C(=O)OC(C)C1CC1)C(C)C)C(C)(C)C)C2(C)C` (some centres unmarked) [compound 4560] stands 76 to 250 nM.
Under `CC(C)CC(C)(NC(=O)N[C@H](C(=O)N1C[C@H]2[C@@H]([C@H]1C(=O)NC(CC1CC1)C(=O)C(N)=O)C2(C)C)C(C)(C)C)C(=O)OCc1ccccc1` (some centres unmarked) [compound 4562] stands 76 to 250 nM; under `CC(C)(C)[C@H](NC(=O)NC1(C(=O)OCc2cc[n+]([O-])cc2)CCCCC1)C(=O)N1C[C@H]2[C@@H]([C@H]1C(=O)NC(CC1CC1)C(=O)C(N)=O)C2(C)C` (some centres unmarked) [compound 4563], 76 to 250 nM.
`COC(=O)C(C)(C)NC(=O)N[C@H](C(=O)N1C[C@H]2[C@@H]([C@H]1C(=O)NC(CC1CCC1)C(=O)C(N)=O)C2(Cl)Cl)C(C)(C)C` (some centres unmarked) [compound 4565]: the Ki is 76 to 250 nM.
Next, `CC(C)(C)OC(=O)[C@H](NC(=O)N[C@H](C(=O)N1C[C@H](Cl)C[C@H]1C(=O)NC(CC1CC1)C(=O)C(N)=O)C(C)(C)C)C(C)(C)C` (some centres unmarked) [compound 4566]: 76 to 250 nM; `CC(C)(C)[C@H](NC(=O)N[C@H](C(=O)N1C[C@H]2[C@@H]([C@H]1C(=O)NC(CC1CC1(F)F)C(=O)C(N)=O)C2(C)C)C(C)(C)C)C(=O)OCc1ccccc1` (some centres unmarked) [compound 4567]: 76 to 250 nM.
Next, `CCCCC(NC(=O)[C@@H]1[C@@H]2[C@H](CN1C(=O)[C@@H](NC(=O)N[C@H](C(=O)OC(C)(C)C)C(C)(C)C)C1CCCCC1)C2(C)C)C(=O)C(=O)NCCC#N` (some centres unmarked) [compound 4569]: 76 to 250 nM; `C=CCNC(=O)C(=O)C(CCC)NC(=O)[C@@H]1CC2(CN1C(=O)[C@@H](NC(=O)N[C@H](C(=O)OC(C)(C)C)C(C)C)C(C)(C)C)SCCS2` (some centres unmarked) [compound 4570]: 76 to 250 nM; `COC(=O)[C@@H](NC(=O)N[C@H](C(=O)N1C[C@H]2[C@@H]([C@H]1C(=O)NC(CC1CCC1)C(=O)C(N)=O)C2(Cl)Cl)C(C)(C)C)C(C)(C)O` (some centres unmarked) [compound 4571]: 76 to 250 nM.
With `CC(C)(C)OC(=O)[C@H](NC(=O)N[C@H](C(=O)N1C[C@H](Cl)C[C@H]1C(=O)NC(CC1CCC1)C(=O)C(N)=O)C(C)(C)C)C(C)(C)C` (some centres unmarked) [compound 4572], the Ki fell in the range of 76 to 250 nM.
Under `C=CCNC(=O)C(=O)C(CCC)NC(=O)[C@@H]1[C@@H]2[C@H](CN1C(=O)[C@@H](NC(=O)N[C@H](C(=O)OCc1ccccc1)C(C)(C)C)C(C)(C)C)C2(C)C` (some centres unmarked) [compound 4573] stands 76 to 250 nM.
As to `C[C@H](NC(=O)C(=O)C(CC1CC1)NC(=O)[C@@H]1[C@@H]2[C@H](CN1C(=O)[C@@H](NC(=O)N[C@H](C(=O)OC(C)(C)C)C(C)(C)C)C(C)(C)C)C2(C)C)c1ccccc1` (some centres unmarked) [compound 4574], the Ki was in the range of 76 to 250 nM.
Next, `COc1ccc(COC(=O)C2(NC(=O)N[C@H](C(=O)N3C[C@H]4[C@@H]([C@H]3C(=O)NC(CC3CC3)C(=O)C(N)=O)C4(C)C)C(C)(C)C)CCCCCC2)cc1` (some centres unmarked) [compound 4575]: 76 to 250 nM; `C=CCNC(=O)C(=O)C(CCC)NC(=O)[C@@H]1[C@@H]2[C@H](CN1C(=O)[C@@H](NC(=O)N[C@H](C(=O)OCc1ccccc1)[C@@H](C)CC)C(C)(C)C)C2(C)C` (some centres unmarked) [compound 4576]: 76 to 250 nM; `CCCCC(NC(=O)[C@@H]1[C@@H]2[C@H](CN1C(=O)[C@@H](NC(=O)N[C@H](C(=O)OC(C)(C)C)C(C)(C)C)C1CCCCC1)C2(C)C)C(=O)C(=O)NCCC` (some centres unmarked) [compound 4577]: 76 to 250 nM.
Next, `C=CCNC(=O)C(=O)C(CC1CC1)NC(=O)[C@@H]1[C@@H]2[C@H](CN1C(=O)[C@@H](NC(=O)N[C@H](C(=O)OC(C)C)C(C)(C)C)C(C)(C)C)C2(C)C` (some centres unmarked) [compound 4578]: 76 to 250 nM.
Next, `C=CCNC(=O)C(=O)C(CCCC)NC(=O)[C@@H]1[C@@H]2[C@H](CN1C(=O)[C@@H](NC(=O)N[C@H](C(=O)O[C@@H](C)c1ccccc1)C(C)(C)C)C(C)(C)C)C2(C)C` (some centres unmarked) [compound 4579]: 76 to 250 nM.
As for `CC(C)(C)[C@H](NC(=O)N[C@H](C(=O)N1C[C@H]2[C@@H]([C@H]1C(=O)NC(CC1CCC1)C(=O)C(N)=O)C2(C)C)C(C)(C)C)C(=O)OC1CCCCC1` (some centres unmarked) [compound 4580], the Ki was in the range of 76 to 250 nM.
Next, `COC(=O)C1(NC(=O)N[C@H](C(=O)N2C[C@H]3[C@@H]([C@H]2C(=O)NC(CC2CCC2)C(=O)C(N)=O)C3(Cl)Cl)C2CCCCC2)CCCC1` (some centres unmarked) [compound 4581]: 76 to 250 nM.
Under `CC(C)(C)[C@H](NC(=O)NC1(C(=O)OCc2ccccc2)CCCCC1)C(=O)N1C[C@H]2[C@@H]([C@H]1C(=O)NC(CC1CC1(F)F)C(=O)C(N)=O)C2(C)C` (some centres unmarked) [compound 4582] stands 76 to 250 nM; under `COc1ccc(COC(=O)C2(NC(=O)N[C@H](C(=O)N3C[C@H]4[C@@H]([C@H]3C(=O)NC(CC3CC3)C(=O)C(N)=O)C4(C)C)C(C)C)CCCCC2)cc1` (some centres unmarked) [compound 4583], 76 to 250 nM; under `CNC(=O)C(=O)C(CC1CC1)NC(=O)[C@@H]1[C@@H]2[C@H](CN1C(=O)[C@@H](NC(=O)N[C@H](C(=O)O[C@H](C)c1ccccc1)C(C)(C)C)C(C)(C)C)C2(C)C` (some centres unmarked) [compound 4584], 76 to 250 nM.
`C=CCNC(=O)C(=O)C(CCC)NC(=O)[C@@H]1[C@H]2CC(C)(C)O[C@H]2CN1C(=O)[C@@H](NC(=O)N[C@H](C(=O)OCc1ccco1)C(C)C)C1CCCCC1` (some centres unmarked) [compound 4585]: the Ki was 76 to 250 nM.
Next, `C=CCNC(=O)C(=O)C(CCCC)NC(=O)[C@@H]1[C@@H]2[C@H](CN1C(=O)[C@@H](NC(=O)N[C@H](C(=O)OC(C)(C)C)C(C)(C)C)C1Cc3ccccc3C1)C2(C)C` (some centres unmarked) [compound 4586]: 76 to 250 nM.
Next, `CCNC(=O)C(=O)C(CC1CC1)NC(=O)[C@@H]1[C@@H]2[C@H](CN1C(=O)[C@@H](NC(=O)N[C@H](C(=O)OC(C)(C)C)C(C)C)C(C)(C)C)C2(C)C` (some centres unmarked) [compound 4587]: 76 to 250 nM.
Next, `CC(C)(C)OC(=O)[C@H](NC(=O)N[C@H](C(=O)N1C[C@H](Cl)C[C@H]1C(=O)NC(CC1CC1)C(=O)C(N)=O)C1CCCCC1)C(C)(C)C` (some centres unmarked) [compound 4588]: 76 to 250 nM; `CC[C@H](C)[C@H](NC(=O)N[C@H](C(=O)N1C[C@H]2[C@@H]([C@H]1C(=O)NC(CC1CC1)C(=O)C(N)=O)C2(C)C)C1CCCCC1)C(=O)OCc1ccccc1` (some centres unmarked) [compound 4589]: 76 to 250 nM; `C=CCNC(=O)C(=O)C(CCCC)NC(=O)[C@@H]1[C@H]2CC(C)(C)O[C@H]2CN1C(=O)[C@@H](NC(=O)N[C@H](C(=O)OC(C)(C)C)C(C)(C)C)C1CCCCC1` (some centres unmarked) [compound 4590]: 76 to 250 nM.
With `CC1(C)[C@@H]2[C@@H](C(=O)NC(CC3CCC3)C(=O)C(N)=O)N(C(=O)[C@@H](NC(=O)NC3(C(=O)OCc4ccccc4)CCCC3)C3Cc4ccccc4C3)C[C@@H]21` (some centres unmarked) [compound 4591], the Ki fell in the range of 76 to 250 nM.
Under `CC(C)[C@H](NC(=O)N[C@@H](CC(C)(C)C)C(=O)OCc1ccccc1)C(=O)N1C[C@H]2[C@@H]([C@H]1C(=O)NC(CC1CC1)C(=O)C(N)=O)C2(C)C` (some centres unmarked) [compound 4592] stands 76 to 250 nM; under `C=CCNC(=O)C(=O)C(CC1CC1)NC(=O)[C@@H]1[C@@H]2[C@H](CN1C(=O)[C@@H](NC(=O)N[C@H](C(=O)OCc1ccccc1)C(C)(C)C)C(C)(C)C)C2(C)C` (some centres unmarked) [compound 4593], 76 to 250 nM.

(Values after patent publication US7423058B2, “Inhibitors of hepatitis C virus NS3 protease” (Schering Corporation, priority 2004, dated 2008).)
